Assay results as given in paper PMC4336329 (PLoS ONE, 2015).
The campaign covered roughly 310,000 compounds. About 2,200 (0.71%) showed an effect of 50% or more. Effects have a minus sign here. This is one part of the list. Where a SMILES comes first, the peptide text is derived from it.

target: human ether-à-go-go-related gene (hERG) potassium channel (human, UniProt Q12809); experiment: primary screen, population patch clamp on CHO cells stably expressing hERG
Sequence (Q12809 whole entry, looked up): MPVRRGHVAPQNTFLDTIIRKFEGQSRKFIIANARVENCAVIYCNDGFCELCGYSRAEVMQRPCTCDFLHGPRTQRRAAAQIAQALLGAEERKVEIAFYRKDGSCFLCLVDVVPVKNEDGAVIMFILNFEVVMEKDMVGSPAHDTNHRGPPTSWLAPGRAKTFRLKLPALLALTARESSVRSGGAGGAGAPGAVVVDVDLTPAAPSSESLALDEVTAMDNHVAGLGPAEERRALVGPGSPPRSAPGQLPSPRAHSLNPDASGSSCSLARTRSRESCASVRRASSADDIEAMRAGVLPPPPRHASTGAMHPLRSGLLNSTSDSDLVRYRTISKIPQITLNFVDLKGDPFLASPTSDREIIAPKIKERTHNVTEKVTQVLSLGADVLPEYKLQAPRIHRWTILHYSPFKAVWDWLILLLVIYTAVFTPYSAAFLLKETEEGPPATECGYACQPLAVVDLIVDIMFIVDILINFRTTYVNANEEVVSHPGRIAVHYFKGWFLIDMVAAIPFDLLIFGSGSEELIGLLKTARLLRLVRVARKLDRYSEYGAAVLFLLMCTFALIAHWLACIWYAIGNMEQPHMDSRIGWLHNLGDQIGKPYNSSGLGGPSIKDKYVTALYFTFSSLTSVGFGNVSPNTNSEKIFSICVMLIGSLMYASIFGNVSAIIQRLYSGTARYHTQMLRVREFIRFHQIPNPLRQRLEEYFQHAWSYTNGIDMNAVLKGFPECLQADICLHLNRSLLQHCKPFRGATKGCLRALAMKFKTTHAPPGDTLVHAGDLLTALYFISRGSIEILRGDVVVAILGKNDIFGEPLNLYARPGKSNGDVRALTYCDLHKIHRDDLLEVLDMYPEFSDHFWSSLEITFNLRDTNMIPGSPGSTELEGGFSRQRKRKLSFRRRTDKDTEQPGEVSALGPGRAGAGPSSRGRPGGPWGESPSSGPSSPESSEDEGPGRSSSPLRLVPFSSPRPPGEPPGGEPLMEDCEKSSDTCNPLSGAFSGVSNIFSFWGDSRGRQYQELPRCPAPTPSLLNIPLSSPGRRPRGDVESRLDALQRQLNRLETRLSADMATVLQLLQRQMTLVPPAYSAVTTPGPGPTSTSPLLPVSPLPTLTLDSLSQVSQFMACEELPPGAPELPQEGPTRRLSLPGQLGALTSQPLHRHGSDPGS

Compound	hERG current change (%, negative = inhibition) at 1uM
CCOC(=O)N1CCN(C(=O)c2ccccc2NC(=O)c2ccc(F)cc2)CC1	15.6%
CN(CC(=O)N1CCCC1)S(=O)(=O)c1cc(Cl)ccc1Cl	2.47%
Cc1nn(S(=O)(=O)c2ccc([N+](=O)[O-])cc2)c(C)c1Sc1ccccc1	4.27%
O=C(NC1CCCCC1)c1ccccc1NC(=O)C1CC(=O)N(c2ccc(Cl)cc2)C1 (stereo not drawn)	13.2%
COc1ccccc1C(=O)C1CCCN(C(=O)c2cc(CC(C)C)nc(C)n2)C1 (stereo not drawn)	-39.8%
COc1ccc([N+](=O)[O-])cc1NC(=O)COC(=O)c1ccccc1O	23.4%
Cc1c(NS(=O)(=O)c2cccc([N+](=O)[O-])c2)c(=O)n(-c2ccccc2)n1C	12.9%
CCn1c(-c2ccccc2Cl)nn(CC(=O)Nc2cc(Cl)ccc2Cl)c1=S	9.28%
O=C(Nc1cccc(Br)c1)c1ccc(Cl)c(S(=O)(=O)N2CCOCC2)c1	9.35%
COc1ccc(-c2nc(-c3ccccc3)nc(N3CCN(C)CC3)c2C#N)cc1	17.1%
COCCCNC(=O)c1ccc(CN2CCc3ccccc3C2)cc1	12.8%
Cc1cccc(NC(=O)CCc2nc3sc4c(c3c(=O)[nH]2)CCCC4)c1	11.5%
CCN(CC(=O)Nc1c(F)cccc1F)C(=O)CSc1nnc(-c2ccco2)n1CC	9.72%
O=S1(=O)CCOCCCN1Cc1ccc(Cl)cc1	17.9%
COc1ccc(C2C(C#N)=C(N)Oc3n[nH]c(C)c32)cc1Cn1nc(C)c([N+](=O)[O-])c1C (stereo not drawn)	1.04%
O=C(Cn1ccc2ccccc2c1=O)N1CCN(c2cccc(Cl)c2)CC1	13.3%
O=C(NCc1ccco1)c1ccc(CN2CCOCC2)cc1	12.2%
Cc1cc(C)c(NC(=O)NC(=O)c2cccc(F)c2)c(C)n1	1.84%
Cc1ccc(N)c(C(O)(C(F)(F)F)C(F)(F)F)c1	-2.32%
COc1cc(/C=C/C(=O)N2CCN(c3n[nH]c(=O)[nH]c3=O)CC2)cc(OC)c1OC	8.88%
CCOC(=O)CN(C(=O)COc1nc(C)cc(C)c1C#N)c1cccc(Cl)c1	9.23%
COc1ccc(Sc2nc(-c3ccccn3)ncc2OC)cc1	2.96%
CC(C)c1ccc(COc2ccc(C(=O)N3CCOCC3)cc2)cc1	-1.08%
CCC(C)c1ccc(OCCn2cc(/C=N/NC(=O)CSc3nnc(C)s3)c3ccccc32)cc1 (stereo not drawn)	13.9%
Cc1cccc(-n2c(C)cc(C=C(C#N)C#N)c2C)c1	10.6%
Cc1cc2nccc(-c3ccc(Cl)c([N+](=O)[O-])c3)n2n1	19.4%
CCOC(=O)N1CCN(S(=O)(=O)c2ccc3[nH]c(=O)oc3c2)CC1	1.16%

Compound	hERG current change (%, negative = inhibition) at 1uM
O=C(C(Cc1ccccc1)NS(=O)(=O)c1cccc2cccnc12)N1CCc2ccccc21 (stereo not drawn)	3.6%
COc1ccc(-c2cc(C(F)(F)F)n3nc(C(=O)NCCN4CCOCC4)cc3n2)cc1	7.08%
Cc1cc(C)nc(/N=C(\N)Nc2ccc(C(C)C)cc2)n1	-3.29%
O=C(NCC(=O)N(c1cccnc1)C(C(=O)NC1CCCCC1)c1ccccc1F)c1ccco1 (stereo not drawn)	16.7%
Cc1cc(C)c(C)c(S(=O)(=O)Nc2ccc(C(=O)N3CCCC3)cc2)c1C	7.53%
COC(=O)C1=C(c2ccc(OC)c(OC)c2)C[C@@H]2CC[C@H]1N2C(=O)N1CCC(C)CC1	17.2%
COC(C[C@@H]1O[C@@H]1[C@H](O)COCc1ccccc1)OC	10.5%
Cc1ccc(C(=O)OCC(=O)N(CC(C)C)c2c(N)n(Cc3ccccc3)c(=O)[nH]c2=O)s1	16.4%
Cc1sc2nc(COC(=O)c3cccc(OC(F)F)c3)[nH]c(=O)c2c1C	7.7%
NS(=O)(=O)c1ccc(NC(=O)c2ccc(CSc3ccccc3)o2)cc1	-8.48%
CCOC(=O)c1cc2sccc2n1CC(=O)OC(C)C	3.06%
CC1=N/C(=C\c2ccc([N+](=O)[O-])cc2)C(=O)N1c1cc(Cl)ccc1C	-1.29%
COc1ccccc1NC(=O)NC(=O)c1ccccc1	15.9%
COC(=O)C(CC(C)C)NC(=O)C(N)Cc1ccccc1.Cl (stereo not drawn) (H-Phe-Leu-OMe; configuration not given here)	4.33%
Cc1nc(N)sc1C(=O)N/N=C/c1ccco1	19.5%
Cc1cc(C(C)(C)C)ccc1OCCOCCN1CCCC1	-0.816%
CCn1ccnc1CN(C)Cc1c(C(=O)N2C[C@@H](C)O[C@@H](C)C2)nc2ccc(Cl)cn12	9.26%
CC(C)CN(C(=O)COC(=O)CCCc1c[nH]c2ccccc12)c1c(N)n(Cc2ccccc2)c(=O)[nH]c1=O	15.8%
CN1CCCN(C(=O)COc2cccc(C(F)(F)F)c2)CC1	6.46%
COc1ccc(CCNS(=O)(=O)c2cc3c4c(c2)CC(=O)N4CCC3)cc1	6.26%
CC(C)(C)C1CCc2[nH]c3ccccc3c(=O)c2C1 (stereo not drawn)	7.87%
O=C(Cc1ccc(Cl)cc1)NC1CC1	19.8%
COCCn1c(=NC(=O)CN2C(=O)CCC2=O)sc2cc(S(N)(=O)=O)ccc21	-4.74%
COc1cccc(/C=C/C(=O)OCC(=O)c2c[nH]c3ccccc23)c1OC	6.4%
CCCCOc1ccc(C(=O)N2CCC(C)CC2)cc1	4.77%
Cn1c(=O)c(=O)n(C)c2cc(S(=O)(=O)Nc3ccc(OC(F)(F)F)cc3)ccc21	4.01%
C=C(C)/C=N/NC(=S)Nc1ccc(S(=O)(=O)N2CCOCC2)cc1	4.89%
